{"source": "the supplement of paper PMC12632987", "binders": {"B1": {"name": "LC3A_62_2056 (protein)", "chain": "MVLAEVTVDVLTKDEEAARKVAETIRRELARLRERHPEWEIEVEEEIDGNFLLVRITVRVPTETDPEEVRDALLDTIDRVLEENADLIKGALISIDVTEL"}, "B2": {"name": "LC3A_132_325 (protein)", "chain": "SEEELEKLRKEINKLIEEAKENIDNLEKVKELVEKIKKLLKEAEEKISPEDAAKLFNEAAEKLDEVSRKALEAGKEEVALELDGLAVEAAAKAIELEEKI"}, "B3": {"name": "LC3A_28_743 (protein)", "chain": "SALDAELARALAEAREAAARGESAVITITIPGTADQADIDKVMEALEEIAEILKDVPDQAIIIDVDGKLDQDLLTKLADKADEIEEKYPNVTVIIALDEE"}, "B4": {"name": "LC3A_28_1107 (protein)", "chain": "SSVDEENAKALAEAEKAAAAGEPAVITITVKSTDTQEDIDKKIETMEKIAEILKDVKDAAIIIDLDGEIPQEYLDKLADKGEEIEKKYPNITVIIALDEE"}, "B5": {"name": "LC3A_147_494 (protein)", "chain": "AVIEIDILVKNEETAEEIKEEIEKIVEELRKKGYEVELEIELEKIDENTYYLRVTITIKAPTPEEEKAAANEVLKRIEEILEKHKDDVLAALINVEFEEE"}, "B6": {"name": "LC3A_132_243 (protein)", "chain": "SKEKLEKLRKELEEKLKELKENIDDLEKVKELVKEIEELLEEAEKELSPEDALELHEEVADRLYEIAEEAEKAGKKEVARIVENAAMYADGRAIEQELKL"}, "B7": {"name": "LC3A_3_1679 (protein)", "chain": "MEELVEEVLKLLKENGFDEETIEAAKKLLEALKKRGYENAIKTLLEELKKLKDVPSELVKDMFKELLKYVTEKNPTEEEVVKLIKEEAKTLLNDLEIEEL"}, "B8": {"name": "LC3A_141_374 (protein)", "chain": "TKKKIKKELKNADEDEVDKLAQEVADEVEKFIKENKGKEVKVKLKVTVTDLETGETKKLEIEETVTEENAEMVTEGFVIEIMSLVLDKKVNLEIEVTLEV"}, "B9": {"name": "LC3A_free_46_2343 (protein)", "chain": "MKLEILIDILADTEEKAKKAVEELVKKFKELAKKYNAKLEIKVEIEKLEDGSYYARIEATFSGVTKEQAEEIENEIIDKVDEISKKYGVAAIVSSEIIEE"}, "B10": {"name": "LC3A_13_339 (protein)", "chain": "MVHIEATGEEESLEKAIKEVKESKAKEVKVTLTVSSEEDVEKVVAAAKELIDIAEEQGAKLEITIVGKRDHVLEAALEIGSYIFEHIDKVDVTLSLEVTP"}, "B11": {"name": "LC3A_45_1926 (protein)", "chain": "MWEATVDILVPRELAERALAETRRLADELEARHGPALRVDRAALDESYAASRDEEDVYLRVRIFHPDREAALAAADELSDRLDAALGGKASSIISLRELP"}, "B12": {"name": "LC3A_free_46_2338 (protein)", "chain": "YLVEVTVDTLAAPKEKIEEFIEEFERKAREIAEELGGEIEIEVEIEKEENGLYSAIITVKITVETKEKAEEAAQKLLDAVDELDEKYGIVGLISVSIEKE"}, "B13": {"name": "LC3A_28_651 (protein)", "chain": "SATRAAIEAALAEAQAALAAGEPTVITLTITGDATEADIERAIAALEEIAEIAEKLGGSTIIVDLEAGVAKEHQDRLIDKGEELEERYPKVTVIFALAEE"}, "B14": {"name": "LC3A_3_1359 (protein)", "chain": "MEELRAETLAFLRAQGKSEETLEAVARTLDALAARGYEAAAREFVALLRELADLPDELLLAFAEDVLEAVTKKDLSEEELIAFIREEAAVARHEAEIEEL"}, "B15": {"name": "LC3A_3_1480 (protein)", "chain": "MDERLAATLAALRAAGASDETLAAVRETVEALRAKGYEKAAETFLELMERHLGLPDETLLAIAELSLELVRTEDLSEEELSARIREIAEDVAGIEELDEE"}, "B16": {"name": "LC3A_free_8_2520 (protein)", "chain": "TSEKFTKKAVEILDKLEEEVVAYLKSKGASELEILEAELLIGSIIAEVISLKDKSLEDILKSIRDGLEDLVKELSKYKEEIKELADKALEEIEKAAEELK"}, "B17": {"name": "LC3A_28_879 (protein)", "chain": "MTVEEALAAARAEVAAAVAAGEEAHVVVEITEPITPEEAKALVEGLRAIVEEGASLPALSITISLSRKVSQEARDIIADGAEEIEARYPHVTVIIALEEE"}, "B18": {"name": "LC3A_free_39_2227 (protein)", "chain": "SKEEVEKLIKELAEKAGLDYEEVKKKIEEIKEIGGLSDEQIKELIKALLKAVEAGADAKEILEEAVKLTKELKAQGKSPEEIFEAILELIEDYRNLVPLD"}, "B19": {"name": "LC3A_3_1805 (protein)", "chain": "ADERIEALLEELRAAGASEETIAAAREVLTLLRERGYLEALETLIEGLRELLDAPDELRLDLLEDVLEYLETNDASEEEVTEFIKEEIRLARSESEIEEL"}}, "note": "Whole data set: some 2,300 sequences, median “median log2 fold change of GCK-ALFA target abundance (FLAG IP / Myc IP barcode read proportion)” near 0.095, cut for the lowest 2% near -0.47. The list shows a part of the results."}
{"molecular_target": "MAP1LC3A, Q9H492", "assay": "median log2 fold change of GCK-ALFA target abundance (FLAG IP / Myc IP barcode read proportion) (log2 ratio); each designed protein is fused to an ALFA-tag nanobody in HEK293 cells to bring the named protein to FLAG-tagged glucokinase (GCK); Myc marks an untargeted standard; higher = target protein stabilised (more abundant)", "settings": "target protein: 3xFLAG-MCP-GCK-ALFA reporter; HEK293 landing pad (RPLP)", "how_it_was_run": "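Sequencing of reverse-transcribed, amplified circular RNA barcodes from anti-FLAG and anti-Myc immunoprecipitates provided the readout for an ALFA-nanobody-fused binder library recombined into HEK293 landing-pad cells. Those cells were induced with 2 μg mL^−1 doxycycline, transfected with a plasmid expressing a FLAG-tagged target and a Myc-tagged standard, and lysed after 48 h. Target abundance is the per-binder median log2 ratio of FLAG to Myc barcode read proportions. Only barcodes at a proportion of ≥10^−7 in both replicates and binders with ≥3 barcodes per replicate were kept, with a 10^−6 pseudocount added before the two replicates were pooled.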"}
{"binder": "B1", "median log2 fold change": 0.00793}
{"binder": "B2", "median log2 fold change": 0.169}
{"binder": "B3", "median log2 fold change": 0.0608}
{"binder": "B4", "median log2 fold change": 0.154}
{"binder": "B5", "median log2 fold change": -0.311}
{"binder": "B6", "median log2 fold change": 0.1}
{"binder": "B7", "median log2 fold change": 0.409}
{"binder": "B8", "median log2 fold change": 0.0612}
{"binder": "B9", "median log2 fold change": -0.426}
{"binder": "B10", "median log2 fold change": 0.154}
{"binder": "B11", "median log2 fold change": 0.177}
{"binder": "B12", "median log2 fold change": -0.0859}
{"binder": "B13", "median log2 fold change": -0.329}
{"binder": "B14", "median log2 fold change": 0.287}
{"binder": "B15", "median log2 fold change": 0.165}
{"binder": "B16", "median log2 fold change": 0.13}
{"binder": "B17", "median log2 fold change": 0.364}
{"binder": "B18", "median log2 fold change": -0.251}
{"binder": "B19", "median log2 fold change": -0.0069}
